Measured values as given in PubChem BioAssay AID504332 (National Center for Advancing Translational Sciences (NCATS), 2011).
The whole screen tested about 350,000 compounds, of which about 31,000 (8.9%) were called active. This list was built around the results that the source calls inconclusive (neither active nor inactive); the mix of calls is not that of the screen. Calls come from the whole dose curve; as a rule, active = well fitted inhibition curve with a large enough effect; inconclusive = small, poorly fitted or top-dose-only effect; inactive = no such curve, though single readings can be large or run the other way. Where the call is inconclusive, the potency comes from a doubtful curve fit.

What follows are compounds tested against Histone-lysine N-methyltransferase EHMT2 (Homo sapiens) (UniProt Q96KQ7) (assay: qHTS Assay for Inhibitors of Histone Lysine Methyltransferase G9a). Conditions: G9a H3K9 monomethylation, AlphaScreen, 2 h; activity, negative = inhibition: at 59 µM (top of the series) unless noted.
How it was run: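 G9a (20 nM) preincubated 15 min RT with compounds, then 500 nM biotinylated H3K9 peptide and 20 uM SAM added; 2 h RT reaction. Monomethyl-H3K9 product detected by AlphaScreen with anti-H3K9me1 antibody, streptavidin donor and anti-rabbit IgG acceptor beads.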
% is set by controls: 0 for no effect and ±100 for the full control effect; potency is the fitted concentration of half-maximal effect; tags give direction and shape of the fitted curve.
Note: nearly all actives have a fitted effect of over 75% in size.

Chain of UniProt Q96KQ7 (Q96KQ7 whole entry, looked up): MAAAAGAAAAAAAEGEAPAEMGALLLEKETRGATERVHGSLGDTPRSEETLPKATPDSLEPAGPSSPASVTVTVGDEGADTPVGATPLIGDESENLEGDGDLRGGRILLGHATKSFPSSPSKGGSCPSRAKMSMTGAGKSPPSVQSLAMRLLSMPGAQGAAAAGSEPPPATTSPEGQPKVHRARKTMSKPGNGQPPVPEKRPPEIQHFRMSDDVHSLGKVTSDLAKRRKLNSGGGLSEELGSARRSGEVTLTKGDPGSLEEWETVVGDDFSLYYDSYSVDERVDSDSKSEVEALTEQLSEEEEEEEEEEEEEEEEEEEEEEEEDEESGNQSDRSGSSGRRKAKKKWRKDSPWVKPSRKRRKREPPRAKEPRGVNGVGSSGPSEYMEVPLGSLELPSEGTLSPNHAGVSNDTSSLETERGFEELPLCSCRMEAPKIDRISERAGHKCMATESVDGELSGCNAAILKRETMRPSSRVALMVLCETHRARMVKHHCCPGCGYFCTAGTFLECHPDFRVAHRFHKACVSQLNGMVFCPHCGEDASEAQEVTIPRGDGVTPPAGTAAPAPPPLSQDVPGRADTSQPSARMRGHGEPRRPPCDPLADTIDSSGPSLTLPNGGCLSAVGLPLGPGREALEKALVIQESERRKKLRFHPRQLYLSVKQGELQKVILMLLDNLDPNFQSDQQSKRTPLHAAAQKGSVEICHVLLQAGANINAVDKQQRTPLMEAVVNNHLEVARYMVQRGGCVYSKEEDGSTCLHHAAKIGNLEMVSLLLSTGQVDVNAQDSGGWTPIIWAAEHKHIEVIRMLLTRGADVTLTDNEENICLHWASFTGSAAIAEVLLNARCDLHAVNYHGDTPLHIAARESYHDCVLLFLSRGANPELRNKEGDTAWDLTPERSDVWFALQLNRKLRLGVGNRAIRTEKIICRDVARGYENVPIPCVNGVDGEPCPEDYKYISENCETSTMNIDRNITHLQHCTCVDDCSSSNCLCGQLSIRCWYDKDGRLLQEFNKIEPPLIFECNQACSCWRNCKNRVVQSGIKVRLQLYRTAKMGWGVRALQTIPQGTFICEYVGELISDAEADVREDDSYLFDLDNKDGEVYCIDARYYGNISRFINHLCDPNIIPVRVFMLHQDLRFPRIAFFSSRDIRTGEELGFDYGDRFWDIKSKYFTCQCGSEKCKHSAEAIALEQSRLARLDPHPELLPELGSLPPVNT

Row | Structure (SMILES) | activity, negative = inhibition | Potency
1 | COCCOC(=O)c1c(C)oc2ccc(OS(C)(=O)=O)cc12 | inactive: 33.6% [at 102 µM] | –
2 | O=C(OCC(=O)c1cccs1)c1ccccc1 | – | inconclusive: 0.708 µM [inhibitor, full curve, poor fit]
3 | CC(=O)c1ccc(NC(=O)C2C3C=CC(O3)C2C(=O)O)cc1 (centres undefined) | – | inconclusive: 89.1 µM [inhibitor, single point]
4 | COc1cccc(-c2csc(N3CCN(C(=O)Nc4ccc(Cl)cc4)CC3)n2)c1 | – | inconclusive: 39.8 µM [inhibitor, partial curve, poor fit]
5 | O=C(NC(N1CCCCCC1)C(Cl)(Cl)Cl)c1ccccc1Cl (centres undefined) | – | inconclusive: 20 µM [inhibitor, single point]
6 | Cc1ccccc1NC(=O)COC(=O)c1ccccc1SCC(=O)N1CCCC1 | – | inconclusive: 10 µM [inhibitor, partial curve, poor fit]
7 | Cc1ccc(-n2nc3c(c2NC(=O)c2ccccc2Br)CS(=O)C3)cc1 (centres undefined) | – | inconclusive: 70.8 µM [inhibitor, single point]
8 | Cn1nccc1NC(=O)COCC(=O)O | – | inconclusive: 79.4 µM [inhibitor, partial curve, poor fit]
9 | CCOc1ccc(-n2c(SCc3ccc(C(=O)OC)o3)nc3c(c2=O)SCC3)cc1 | – | inconclusive: 35.5 µM [inhibitor, single point]
10 | O=C(Nc1c(-c2ccccc2)nc2ccccn12)c1ccccc1F | – | inactive
11 | CC(c1ccco1)N(C(=O)c1ccccc1NS(=O)(=O)c1ccc(Cl)cc1)c1ccccn1 (centres undefined) | – | inconclusive: 20 µM [inhibitor, single point]
12 | CCOc1ccc(NC(=S)N2CCC(C(N)=O)CC2)cc1 | inactive: 12.6% | –
13 | COC1=C/C(=C/c2c(N)n3nc(-c4ccc(C)cc4)sc3nc2=O)C=CC1=O | – | inconclusive: 3.16 µM [inhibitor, full curve]
14 | Cc1nn(-c2ccccc2)c(C)c1C1C(C#N)=C(N)Oc2n[nH]c(C)c21 (centres undefined) | – | inconclusive: 14.1 µM [inhibitor, single point]
15 | CC(NC(=O)Cc1ccccc1F)c1ccc(F)cc1 (centres undefined) | inactive: 13.3% [at 102 µM] | –
16 | C=CCOC(=O)C1=C(C)NC(SCC(=O)OCC)=C(C#N)C1c1ccc(C)cc1 (centres undefined) | inactive: -0.268% [at 102 µM] | –
17 | O=[N+]([O-])c1ccc(Oc2cccc(Br)c2)c2ccncc12 | – | active: 25.1 µM
18 | CCN(CC)C(=O)C1CCCN(Cc2ccccc2C(F)(F)F)C1 (centres undefined) | – | inconclusive: 5.01 µM [inhibitor, single point]
19 | CC(=O)c1cc2c(cc1NS(=O)(=O)c1ccc3c(c1)OCCO3)OCO2 | – | inconclusive: 79.4 µM [inhibitor, partial curve, poor fit]
20 | O=C(CCCc1c[nH]c2ccccc12)N1CCN(c2ccc(N3CCOCC3)nn2)CC1 | – | inconclusive: 89.1 µM [inhibitor, single point]
21 | Cc1ccc(NC(=O)CN2C(=O)c3ccccc3Sc3ccc(C(=O)N4CCOCC4)cc32)c(Cl)c1 | inactive: -5.33% | –
22 | O=C(O)CCc1nnc2n(Cc3ccc(F)cc3)c(=O)c3ccccc3n12 | inactive: -42.1% [at 102 µM] | –
23 | C=CCN1C=C2C(=O)C(C)(OC(=O)c3ccc(OC)cc3)C(=O)C(c3ccco3)=C2C=C1CCCC (centres undefined) | – | inconclusive: 11.2 µM [inhibitor, single point]

Row | Structure (SMILES) | activity, negative = inhibition | Potency
24 | COc1ccc(Nc2nc(N3CCCCC3)c3ccccc3n2)cc1 | inconclusive: -69.7% [inhibitor] | –
25 | COc1ccc(/C=C(\C#N)C(=O)OCC(=O)NCc2ccccc2)cc1 | inactive: -1.51% | –
26 | Cc1nn(CC(=O)NCCN2CCCCCC2)c(=O)c2nn(-c3ccccc3)c(C)c12 | inactive: -42.1% [at 102 µM] | –
27 | COc1cc(C(=O)N2CCC(c3nc(-c4cccnc4)no3)CC2)cc(OC)c1OC | – | inconclusive: 50.1 µM [inhibitor, partial curve]
28 | COc1cccc(N2CCN(C(=O)c3ccc4nc[nH]c4c3)CC2)c1 | – | inconclusive: 56.2 µM [inhibitor, single point]
29 | O=C(/C=C/c1ccccc1)C1C(=O)c2ccccc2C1=O | inactive: -5.43% | –
30 | COC(=O)CCNC(=O)Cc1ccc(S(=O)(=O)N2CCCCC2)s1 | – | active: 50.1 µM
31 | CCOc1ccccc1N1Cc2cc(C)c(C)cc2C1 | – | inconclusive: 10 µM [inhibitor, partial curve, poor fit]
32 | O=C(NC1CCCCC1)C(c1cccs1)N(CC1CCCO1)C(=O)c1csnn1 (centres undefined) | inactive: -7.44% [at 102 µM] | –
33 | CCc1cc2c(cc3c(=O)n(CC(=O)NCc4cc(Br)ccc4OC)ncn32)s1 | inactive: 25% | –
34 | C=CCN1C(=O)C2(C(C(=O)c3ccc(C)o3)=C(O)C(=O)N2CCCN2CCOCC2)c2ccccc21 (centres undefined) | – | inconclusive: 89.1 µM [inhibitor, single point]
35 | Cc1ccc2nc(-c3ccccn3)cc(C(=O)N3CCN(c4ncccn4)CC3)c2c1 | inconclusive: -95.8% [inhibitor] | –
36 | NS(=O)(=O)c1ccc(Nc2nc(-c3ccccc3)cs2)cc1 | – | active: 44.7 µM
37 | Cc1onc(-c2c(F)cccc2Cl)c1C(=O)OCC(=O)NCc1ccco1 | inactive: -43.5% [at 12.7 µM] | –
38 | O=C(COc1ccc(-c2ccccc2)cc1)N1CCN(C(=O)c2cccs2)CC1 | – | inconclusive: 44.7 µM [inhibitor, partial curve, poor fit]
39 | C/C(=N\N1CCN(c2ccc(Cl)cc2)CC1)c1cccc([N+](=O)[O-])c1 | – | active: 22.4 µM
40 | CCOc1ccc2nc(N3CCCC(C(=O)NCCCN4CCCCC4)C3)sc2c1 (centres undefined) | inactive: -21.9% [at 102 µM] | –
41 | CCc1ccccc1NC(=O)c1cc2sccc2n1C | – | inconclusive: 70.8 µM [inhibitor, partial curve, poor fit]
42 | CCC(C)C(NC(=O)C1CCC(C)CC1)C(=O)NCCc1ccc(S(N)(=O)=O)cc1 (centres undefined) | inactive: 0.756% [at 102 µM] | –
43 | Cn1c(=O)oc2cc(S(=O)(=O)N3CCCC(C(=O)NCc4cccs4)C3)ccc21 (centres undefined) | – | inconclusive: 70.8 µM [inhibitor, single point]
44 | COc1ccc(NC(=O)/C(C#N)=C\c2cc(C)n(-c3ccc4c(c3)OCO4)c2C)cc1 | – | inconclusive: 25.1 µM [inhibitor, single point]
45 | CCOC(=O)CNC(=O)c1cc(OC)cc(OC)c1 | inconclusive: -54.4% [inhibitor] | –
46 | COC(=O)c1ccc2c(c1)C(C)(C)C(/C=C/c1ccc(O)cc1)=[N+]2C | – | active: 7.08 µM

Row | Structure (SMILES) | activity, negative = inhibition | Potency
47 | CCCN(CC(=O)Nc1ccccc1C)C(=O)c1ccc(-c2ccc(C(C)=O)cc2)o1 | – | inconclusive: 44.7 µM [inhibitor, partial curve, poor fit]
48 | O=[N+]([O-])c1ccc(CN2CCN(c3ccc(F)cc3)CC2)o1 | – | inconclusive: 25.1 µM [inhibitor, single point]
49 | CCOC(=O)c1[nH]c(C)c(CCC(=O)Nc2cccc(SC)c2)c1C | – | inconclusive: 39.8 µM [inhibitor, single point]
50 | CCN(CCCNC(=O)CN(C)S(=O)(=O)c1cccc2nsnc12)c1ccccc1 | – | inconclusive: 31.6 µM [inhibitor, single point]
51 | CCn1c(=O)c(C(=O)CN2CCN(S(=O)(=O)c3ccc(C)cc3C)CC2)c(N)n(Cc2ccccc2)c1=O | – | active: 44.7 µM
52 | CC(=O)Nc1nc(=S)ss1 | – | inconclusive: 1.12 µM [inhibitor, partial curve, poor fit]
53 | COc1ccc2cc(CNc3ccc(OC)c(OC)c3)c(=O)n(CC(=O)Nc3ccccc3F)c2c1 | – | inconclusive: 3.55 µM [inhibitor, single point]
54 | CCCCCN(C(=O)NC(=O)Nc1cccc(C)c1C)S(C)(=O)=O | – | inconclusive: 100 µM [inhibitor, single point]
55 | Cc1ccc(C)c(OCC(=O)Nc2ccccc2C(=O)N2CCN(C)CC2)c1 | – | inconclusive: 89.1 µM [inhibitor, single point]
56 | CCOc1ccc(OCCCCN(C)C)cc1 | – | active: 3.55 µM
57 | CCCCNC(=S)Nc1ccc(OC)nc1 | – | active: 56.2 µM
58 | O=c1cc(-c2ccccc2)nc2cc(-c3ccc(Br)cc3)[nH]n12 | – | inconclusive: 0.794 µM [inhibitor, full curve]
59 | COc1ccc(CNC(=O)COC(=O)c2c[nH]c(=O)[nH]c2=O)cc1OC | – | inconclusive: 89.1 µM [inhibitor, single point]
60 | O=c1c2ccccc2nc(-c2ccccc2)n1Cc1ccco1 | – | inconclusive: 89.1 µM [inhibitor, single point]
61 | COc1ccc(CCNC(=O)c2cc(-c3ccccc3OC)on2)cc1OC | – | inconclusive: 89.1 µM [inhibitor, single point]
62 | COc1ccc(-n2c(=S)[nH]c3cc(C(=O)NCc4cccnc4)ccc3c2=O)c(OC)c1 | – | inconclusive: 89.1 µM [inhibitor, single point]
63 | CCn1c(C)nnc1SCC(=O)NC1CCCC1 | inactive: -0.855% | –
64 | CCOC(=O)N1CCN(C(=O)C(C)n2nc(C)n3c(cc4sccc43)c2=O)CC1 (centres undefined) | – | inconclusive: 89.1 µM [inhibitor, single point]
65 | COc1cc2c(cc1OC)CN(CC(=O)Nc1cccc(C)c1)CC2 | inactive: 6.37% | –
66 | CCCCn1c(NC(=O)c2ccco2)c(S(=O)(=O)c2ccc(C)cc2)c2nc3ccccc3nc21 | – | inconclusive: 89.1 µM [inhibitor, single point]
67 | CCCCn1c(N)c(N(CC(C)C)C(=O)CSc2n[nH]c(-c3ccc(C)cc3)n2)c(=O)[nH]c1=O | – | inconclusive: 79.4 µM [inhibitor, partial curve, poor fit]
68 | NC(=O)[C@@H]1CCCNc2c(I)cc([N+](=O)[O-])cc2C(=O)N[C@@H](CCC(=O)O)C(=O)N[C@@H](CO)C(=O)N1 | – | active: 35.5 µM
69 | O=c1/c(=C\c2cccnc2)sc2nc3ccccc3n12 | inactive: -2.7% [at 12.7 µM] | –
